Assay [1] deals with Myc-tagged CD22 Y842F (human) (UniProt P20273). The assay is described as follows: co-IP; anti-Myc co-IP of C-terminally Myc-tagged CD22 WT or Y-to-F mutants from PTP1B KO Ramos cells with induced FLAG-PTP1B-D181A-Y46F; immunoblot with anti-FLAG (n = 3) and anti-GRB2 (n = 1). Background: Immunoblotting shows a protein as a band on a membrane.
Assay [2] concerns the target Myc-tagged CD22 Y762/822/842F triple mutant (human) (UniProt P20273). Described as above.
Assay [3] has as its target Myc-tagged CD22 Y822F (human) (UniProt P20273). Described as above.
In assay [4] the target is Myc-tagged CD22 WT (human) (UniProt P20273). The assay is described as above.
Assay [5] concerns the target Myc-tagged CD22 Y762F (human) (UniProt P20273). The description is as above.
For assay [6], the target named is Myc-tagged CD22 6Y-to-F mutant (human) (UniProt P20273). Described as above.
The target of assay [7] is Myc-tagged CD22-Y822/842F double mutant (human) (UniProt P20273). The description is as above.
Assay [8] has as its target T1, FLAG-PTP1B D181A-Y46F substrate trapping mutant (full-length) (UniProt P18031).
T1 sequence: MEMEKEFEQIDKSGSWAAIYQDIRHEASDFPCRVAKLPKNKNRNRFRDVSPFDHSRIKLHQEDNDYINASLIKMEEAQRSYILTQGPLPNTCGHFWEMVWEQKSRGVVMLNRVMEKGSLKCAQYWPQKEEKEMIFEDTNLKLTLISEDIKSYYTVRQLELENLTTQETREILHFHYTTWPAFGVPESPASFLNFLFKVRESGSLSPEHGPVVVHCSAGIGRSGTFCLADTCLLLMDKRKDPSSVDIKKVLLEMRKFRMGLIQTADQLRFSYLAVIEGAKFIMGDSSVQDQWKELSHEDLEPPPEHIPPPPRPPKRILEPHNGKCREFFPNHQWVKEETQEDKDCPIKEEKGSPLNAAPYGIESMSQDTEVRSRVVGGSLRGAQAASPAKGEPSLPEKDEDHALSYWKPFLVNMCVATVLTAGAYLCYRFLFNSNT
The assay is described as follows: co-IP; anti-FLAG M2 magnetic beads, lysates of PTP1B KO Ramos cells with inducible FLAG-PTP1B WT or trapping mutants; lysis buffer 50 mM Tris-HCl pH 8.5, 137.5 mM NaCl, 1 mM EDTA, 1% Triton X-100; 2-4 h at 8°C; immunoblot of endogenous partners; no orthovanadate.

Amino acid sequences for entries named in this document (tags omitted). A change or cut given only in a name is not applied to a line headed by its entry. Chains listed by the source or under a name are the forms on record and can include a tag or linker. Residues count along the entry.
Myc-tagged CD22 WT (P20273, residues 20-847): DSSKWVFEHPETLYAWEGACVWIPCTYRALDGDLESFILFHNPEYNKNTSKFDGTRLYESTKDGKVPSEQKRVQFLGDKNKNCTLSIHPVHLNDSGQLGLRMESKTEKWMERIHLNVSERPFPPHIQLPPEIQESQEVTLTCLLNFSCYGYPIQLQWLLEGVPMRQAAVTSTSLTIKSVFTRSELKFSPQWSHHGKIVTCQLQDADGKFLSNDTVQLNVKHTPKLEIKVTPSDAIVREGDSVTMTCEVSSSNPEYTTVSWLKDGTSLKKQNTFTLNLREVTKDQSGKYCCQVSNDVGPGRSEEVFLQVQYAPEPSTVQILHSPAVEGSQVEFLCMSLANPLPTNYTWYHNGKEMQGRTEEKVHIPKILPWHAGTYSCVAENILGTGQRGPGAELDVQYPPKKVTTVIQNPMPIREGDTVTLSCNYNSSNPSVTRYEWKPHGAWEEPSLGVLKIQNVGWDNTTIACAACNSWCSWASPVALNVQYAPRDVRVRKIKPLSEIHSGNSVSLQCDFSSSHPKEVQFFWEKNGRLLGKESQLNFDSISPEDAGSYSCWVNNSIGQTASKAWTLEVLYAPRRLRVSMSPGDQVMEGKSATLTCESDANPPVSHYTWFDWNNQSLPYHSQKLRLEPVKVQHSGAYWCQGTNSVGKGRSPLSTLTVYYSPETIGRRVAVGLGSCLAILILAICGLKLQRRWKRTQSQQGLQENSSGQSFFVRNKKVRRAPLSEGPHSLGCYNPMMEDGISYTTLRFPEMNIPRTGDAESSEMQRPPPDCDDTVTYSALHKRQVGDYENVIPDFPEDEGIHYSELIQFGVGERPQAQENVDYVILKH
Myc-tagged CD22 Y842F (P20273, form named): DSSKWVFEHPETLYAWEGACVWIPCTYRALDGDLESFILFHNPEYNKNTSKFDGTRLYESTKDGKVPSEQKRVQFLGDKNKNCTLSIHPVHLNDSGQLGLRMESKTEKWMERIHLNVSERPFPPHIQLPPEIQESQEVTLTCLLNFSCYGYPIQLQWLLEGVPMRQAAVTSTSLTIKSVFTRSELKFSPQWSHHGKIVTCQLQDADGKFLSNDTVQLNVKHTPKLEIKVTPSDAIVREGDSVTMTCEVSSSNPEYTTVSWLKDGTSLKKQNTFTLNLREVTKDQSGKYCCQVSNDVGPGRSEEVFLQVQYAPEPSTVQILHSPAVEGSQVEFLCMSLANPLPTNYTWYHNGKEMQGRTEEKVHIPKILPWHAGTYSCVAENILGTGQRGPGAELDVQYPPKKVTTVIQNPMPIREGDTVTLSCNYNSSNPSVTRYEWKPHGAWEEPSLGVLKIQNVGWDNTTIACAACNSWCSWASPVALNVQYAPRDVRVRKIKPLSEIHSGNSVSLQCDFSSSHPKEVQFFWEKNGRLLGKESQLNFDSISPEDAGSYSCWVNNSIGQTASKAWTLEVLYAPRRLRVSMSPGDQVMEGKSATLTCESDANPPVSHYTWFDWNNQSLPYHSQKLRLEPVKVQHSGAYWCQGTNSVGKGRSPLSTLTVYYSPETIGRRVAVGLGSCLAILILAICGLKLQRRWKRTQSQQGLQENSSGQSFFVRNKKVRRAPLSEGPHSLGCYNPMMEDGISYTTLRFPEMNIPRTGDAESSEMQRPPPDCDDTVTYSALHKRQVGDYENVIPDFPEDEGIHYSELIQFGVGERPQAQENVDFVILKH
Myc-tagged CD22 Y762/822/842F triple mutant (P20273, form named): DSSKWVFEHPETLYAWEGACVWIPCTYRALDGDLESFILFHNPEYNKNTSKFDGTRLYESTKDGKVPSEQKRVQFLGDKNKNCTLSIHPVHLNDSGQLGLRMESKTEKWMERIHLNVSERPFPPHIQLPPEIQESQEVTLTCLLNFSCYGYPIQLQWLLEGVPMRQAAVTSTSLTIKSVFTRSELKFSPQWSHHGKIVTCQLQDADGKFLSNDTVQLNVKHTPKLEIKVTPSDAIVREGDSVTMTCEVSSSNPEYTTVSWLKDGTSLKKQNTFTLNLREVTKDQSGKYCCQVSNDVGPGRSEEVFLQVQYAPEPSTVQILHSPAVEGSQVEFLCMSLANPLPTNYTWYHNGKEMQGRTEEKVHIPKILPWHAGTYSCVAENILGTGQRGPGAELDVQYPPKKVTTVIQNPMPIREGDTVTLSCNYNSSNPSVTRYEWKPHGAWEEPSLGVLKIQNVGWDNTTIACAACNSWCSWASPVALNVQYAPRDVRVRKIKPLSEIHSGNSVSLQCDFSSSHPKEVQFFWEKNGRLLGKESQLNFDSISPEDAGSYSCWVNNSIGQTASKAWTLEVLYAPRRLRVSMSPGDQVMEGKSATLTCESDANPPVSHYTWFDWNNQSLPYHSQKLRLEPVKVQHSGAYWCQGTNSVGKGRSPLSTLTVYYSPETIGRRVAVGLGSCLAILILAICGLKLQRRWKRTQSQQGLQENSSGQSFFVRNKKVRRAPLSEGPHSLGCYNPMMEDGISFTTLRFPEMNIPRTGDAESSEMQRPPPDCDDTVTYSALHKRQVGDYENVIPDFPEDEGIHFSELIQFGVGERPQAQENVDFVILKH
Myc-tagged CD22 Y822F (P20273, form named): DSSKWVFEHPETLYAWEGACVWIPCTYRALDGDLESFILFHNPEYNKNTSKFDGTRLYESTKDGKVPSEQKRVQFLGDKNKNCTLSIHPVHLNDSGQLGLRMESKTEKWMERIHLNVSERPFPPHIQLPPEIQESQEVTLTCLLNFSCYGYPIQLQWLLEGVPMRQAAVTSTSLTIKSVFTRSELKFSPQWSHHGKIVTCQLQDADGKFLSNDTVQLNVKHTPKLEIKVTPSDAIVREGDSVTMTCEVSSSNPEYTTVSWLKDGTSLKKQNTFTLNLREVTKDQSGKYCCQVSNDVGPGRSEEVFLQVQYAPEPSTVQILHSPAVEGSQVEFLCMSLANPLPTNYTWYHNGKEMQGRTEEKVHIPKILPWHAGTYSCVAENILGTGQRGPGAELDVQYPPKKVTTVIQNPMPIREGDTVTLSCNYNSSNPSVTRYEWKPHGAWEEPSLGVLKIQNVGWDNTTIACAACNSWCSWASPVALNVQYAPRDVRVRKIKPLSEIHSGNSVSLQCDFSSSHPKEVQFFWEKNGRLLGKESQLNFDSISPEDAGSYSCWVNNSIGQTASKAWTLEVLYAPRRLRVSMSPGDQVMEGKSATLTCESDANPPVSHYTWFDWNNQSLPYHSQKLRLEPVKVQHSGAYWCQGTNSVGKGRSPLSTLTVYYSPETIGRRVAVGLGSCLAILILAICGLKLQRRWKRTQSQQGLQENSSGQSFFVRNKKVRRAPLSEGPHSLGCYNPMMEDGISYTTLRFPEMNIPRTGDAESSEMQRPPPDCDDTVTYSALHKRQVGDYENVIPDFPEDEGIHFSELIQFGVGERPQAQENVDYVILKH
Myc-tagged CD22 Y762F (P20273, form named): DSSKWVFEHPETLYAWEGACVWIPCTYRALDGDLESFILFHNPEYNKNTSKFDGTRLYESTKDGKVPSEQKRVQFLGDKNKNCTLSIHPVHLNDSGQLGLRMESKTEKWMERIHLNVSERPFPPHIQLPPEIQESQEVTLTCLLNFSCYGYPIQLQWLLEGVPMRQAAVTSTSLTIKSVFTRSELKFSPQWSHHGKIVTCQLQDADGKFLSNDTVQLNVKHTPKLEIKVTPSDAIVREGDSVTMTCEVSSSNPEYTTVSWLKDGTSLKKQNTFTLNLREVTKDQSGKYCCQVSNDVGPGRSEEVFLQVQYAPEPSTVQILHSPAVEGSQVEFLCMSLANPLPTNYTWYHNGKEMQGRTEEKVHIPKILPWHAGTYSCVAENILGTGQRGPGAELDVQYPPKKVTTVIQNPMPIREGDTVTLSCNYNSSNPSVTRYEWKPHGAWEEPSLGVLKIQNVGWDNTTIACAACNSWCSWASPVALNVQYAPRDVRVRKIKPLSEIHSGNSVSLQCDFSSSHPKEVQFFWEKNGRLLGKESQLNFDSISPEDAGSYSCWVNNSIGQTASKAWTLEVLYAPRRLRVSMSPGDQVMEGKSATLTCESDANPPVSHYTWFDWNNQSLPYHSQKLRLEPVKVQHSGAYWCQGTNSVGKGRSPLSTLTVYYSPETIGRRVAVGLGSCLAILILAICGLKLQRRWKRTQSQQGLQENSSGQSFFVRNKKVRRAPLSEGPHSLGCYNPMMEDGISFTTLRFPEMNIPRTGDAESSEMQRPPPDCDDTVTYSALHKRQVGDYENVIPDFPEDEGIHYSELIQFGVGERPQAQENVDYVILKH
Myc-tagged CD22 6Y-to-F mutant (P20273, form named): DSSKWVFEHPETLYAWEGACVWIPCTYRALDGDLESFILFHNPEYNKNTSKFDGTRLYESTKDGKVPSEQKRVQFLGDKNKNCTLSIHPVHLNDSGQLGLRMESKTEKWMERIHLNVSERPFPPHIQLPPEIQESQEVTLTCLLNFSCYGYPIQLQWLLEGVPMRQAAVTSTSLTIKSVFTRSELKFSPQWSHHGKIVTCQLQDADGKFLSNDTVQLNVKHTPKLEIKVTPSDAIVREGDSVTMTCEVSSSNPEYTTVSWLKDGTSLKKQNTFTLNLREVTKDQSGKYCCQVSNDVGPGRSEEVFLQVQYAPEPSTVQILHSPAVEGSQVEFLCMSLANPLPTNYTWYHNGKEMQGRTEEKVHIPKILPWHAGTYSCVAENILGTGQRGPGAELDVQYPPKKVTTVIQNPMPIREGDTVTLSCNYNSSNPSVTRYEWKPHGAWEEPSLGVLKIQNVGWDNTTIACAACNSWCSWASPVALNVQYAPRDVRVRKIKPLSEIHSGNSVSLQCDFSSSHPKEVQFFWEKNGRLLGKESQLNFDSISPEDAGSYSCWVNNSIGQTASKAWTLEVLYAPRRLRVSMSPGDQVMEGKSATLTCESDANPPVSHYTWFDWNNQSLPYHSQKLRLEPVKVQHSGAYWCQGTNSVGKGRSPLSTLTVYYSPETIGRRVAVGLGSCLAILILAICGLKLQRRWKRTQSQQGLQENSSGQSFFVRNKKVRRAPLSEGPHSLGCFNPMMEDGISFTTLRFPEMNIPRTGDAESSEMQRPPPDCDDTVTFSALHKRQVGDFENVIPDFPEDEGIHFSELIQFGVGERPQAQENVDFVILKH
Myc-tagged CD22-Y822/842F double mutant (P20273, form named): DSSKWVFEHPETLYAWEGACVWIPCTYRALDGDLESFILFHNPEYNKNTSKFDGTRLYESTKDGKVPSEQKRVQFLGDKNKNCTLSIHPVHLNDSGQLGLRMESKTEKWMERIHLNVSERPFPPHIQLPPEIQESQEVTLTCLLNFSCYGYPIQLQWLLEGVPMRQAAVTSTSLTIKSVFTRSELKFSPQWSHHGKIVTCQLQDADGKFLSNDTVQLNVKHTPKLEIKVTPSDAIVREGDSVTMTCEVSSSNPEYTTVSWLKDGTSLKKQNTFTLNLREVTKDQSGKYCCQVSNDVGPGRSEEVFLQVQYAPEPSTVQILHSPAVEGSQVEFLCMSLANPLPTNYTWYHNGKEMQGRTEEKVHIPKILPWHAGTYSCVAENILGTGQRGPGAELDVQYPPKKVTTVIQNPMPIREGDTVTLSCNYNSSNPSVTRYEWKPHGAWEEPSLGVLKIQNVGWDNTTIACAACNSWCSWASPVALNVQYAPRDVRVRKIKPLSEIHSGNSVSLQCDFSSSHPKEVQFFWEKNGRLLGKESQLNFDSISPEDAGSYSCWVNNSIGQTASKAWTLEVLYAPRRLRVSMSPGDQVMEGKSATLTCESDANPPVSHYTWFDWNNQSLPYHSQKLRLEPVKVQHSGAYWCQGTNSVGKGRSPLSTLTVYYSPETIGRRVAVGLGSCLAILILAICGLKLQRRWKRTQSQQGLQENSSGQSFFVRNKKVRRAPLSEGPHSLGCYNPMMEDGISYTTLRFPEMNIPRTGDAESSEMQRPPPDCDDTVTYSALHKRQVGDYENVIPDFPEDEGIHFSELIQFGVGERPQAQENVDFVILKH

Assay [9] deals with T2, FLAG-PTP1B WT (protein tyrosine phosphatase 1B) (UniProt P18031).
T2 sequence: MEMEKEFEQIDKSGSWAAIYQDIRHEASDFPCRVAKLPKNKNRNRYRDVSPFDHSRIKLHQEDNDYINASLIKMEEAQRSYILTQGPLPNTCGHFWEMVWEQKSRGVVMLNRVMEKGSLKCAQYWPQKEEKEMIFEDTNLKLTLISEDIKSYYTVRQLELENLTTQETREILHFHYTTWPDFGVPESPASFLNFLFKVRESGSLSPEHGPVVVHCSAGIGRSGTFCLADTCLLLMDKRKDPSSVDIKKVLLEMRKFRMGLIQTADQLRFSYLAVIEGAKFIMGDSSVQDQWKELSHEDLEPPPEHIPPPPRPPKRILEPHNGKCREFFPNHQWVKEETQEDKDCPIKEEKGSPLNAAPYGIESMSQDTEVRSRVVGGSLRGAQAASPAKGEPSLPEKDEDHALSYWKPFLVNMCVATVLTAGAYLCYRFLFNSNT
The assay is described as above.

Assay [10] deals with T1, FLAG-PTP1B D181A-Y46F substrate trapping mutant (full-length). The assay can be described thus: co-IP; as the anti-FLAG co-IP, but cells lysed in the presence of 1 mM orthovanadate, which competes for binding at the catalytic centre; immunoblot.

These are yes or no findings as the source states them, for the method shown. In cells and extracts the contact can be indirect. Some results given as binding are weak or reduced against the parent protein; the word gives no strength. Where a sequence is shown, tags or fusion partners need not be part of it.

B1: FLAG-PTP1B D181A-Y46F substrate trapping mutant (full-length) (enzyme, UniProt P18031 1-435)
chain: MEMEKEFEQIDKSGSWAAIYQDIRHEASDFPCRVAKLPKNKNRNRFRDVSPFDHSRIKLHQEDNDYINASLIKMEEAQRSYILTQGPLPNTCGHFWEMVWEQKSRGVVMLNRVMEKGSLKCAQYWPQKEEKEMIFEDTNLKLTLISEDIKSYYTVRQLELENLTTQETREILHFHYTTWPAFGVPESPASFLNFLFKVRESGSLSPEHGPVVVHCSAGIGRSGTFCLADTCLLLMDKRKDPSSVDIKKVLLEMRKFRMGLIQTADQLRFSYLAVIEGAKFIMGDSSVQDQWKELSHEDLEPPPEHIPPPPRPPKRILEPHNGKCREFFPNHQWVKEETQEDKDCPIKEEKGSPLNAAPYGIESMSQDTEVRSRVVGGSLRGAQAASPAKGEPSLPEKDEDHALSYWKPFLVNMCVATVLTAGAYLCYRFLFNSNT
Take B1: the binding entry in assay [1] is on record as “binds”; in assay [2], “binds”; in [3] it was “binds”; in assay [4] it was “binds”; in [5], “binds”; in assay [6], “no binding”. In assay [7], the binding result is on record as “binds”.

B2: guanine nucleotide exchange factor VAV1 (protein, UniProt P15498 1-845)
chain: MELWRQCTHWLIQCRVLPPSHRVTWDGAQVCELAQALRDGVLLCQLLNNLLPHAINLREVNLRPQMSQFLCLKNIRTFLSTCCEKFGLKRSELFEAFDLFDVQDFGKVIYTLSALSWTPIAQNRGIMPFPTEEESVGDEDIYSGLSDQIDDTVEEDEDLYDCVENEEAEGDEIYEDLMRSEPVSMPPKMTEYDKRCCCLREIQQTEEKYTDTLGSIQQHFLKPLQRFLKPQDIEIIFINIEDLLRVHTHFLKEMKEALGTPGAANLYQVFIKYKERFLVYGRYCSQVESASKHLDRVAAAREDVQMKLEECSQRANNGRFTLRDLLMVPMQRVLKYHLLLQELVKHTQEAMEKENLRLALDAMRDLAQCVNEVKRDNETLRQITNFQLSIENLDQSLAHYGRPKIDGELKITSVERRSKMDRYAFLLDKALLICKRRGDSYDLKDFVNLHSFQVRDDSSGDRDNKKWSHMFLLIEDQGAQGYELFFKTRELKKKWMEQFEMAISNIYPENATANGHDFQMFSFEETTSCKACQMLLRGTFYQGYRCHRCRASAHKECLGRVPPCGRHGQDFPGTMKKDKLHRRAQDKKRNELGLPKMEVFQEYYGLPPPPGAIGPFLRLNPGDIVELTKAEAEQNWWEGRNTSTNEIGWFPCNRVKPYVHGPPQDLSVHLWYAGPMERAGAESILANRSDGTFLVRQRVKDAAEFAISIKYNVEVKHIKIMTAEGLYRITEKKAFRGLTELVEFYQQNSLKDCFKSLDTTLQFPFKEPEKRTISRPAVGSTKYFGTAKARYDFCARDRSELSLKEGDIIKILNKKGQQGWWRGEIYGRVGWFPANYVEEDYSEYC
For the molecule B2, the binding result in assay [8], in assay [9] and in assay [10] was “binds” throughout.

Values taken from PMC8473724.
